Common to all, as to assay: Primary Screen for Target Class Profiling of Small Molecule Inhibitors of Methyltransferases
Test [1] concerns the target Glycine N-methyltransferase (Homo sapiens) (UniProt Q14749). The following applies: purified enzyme, MTase-Glo SAH luminescence; measured here: GNMT inhibition; at 40 µM; stronger effect = lower value. An outline of the steps: (§1)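 Each enzyme was reacted with SAM and its substrate, with compounds tested once at 40 uM; SAH formed was read by MTase-Glo luminescence.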
Test [2] has as its target Guanidinoacetate N-methyltransferase (Homo sapiens) (UniProt Q14353). The following applies: purified enzyme, MTase-Glo SAH luminescence; measured here: GAMT inhibition; at 40 µM; stronger effect = lower value. An outline of the steps:
as §1

In test [3] the target is Histamine N-methyltransferase (Homo sapiens) (UniProt P50135). The following applies: purified enzyme, MTase-Glo SAH luminescence; measured here: HNMT inhibition; at 40 µM; stronger effect = lower value. In a few lines:
as §1

Test [4] addresses Nicotinamide N-methyltransferase (Homo sapiens) (UniProt P40261). The following applies: purified enzyme, MTase-Glo SAH luminescence; measured here: NNMT inhibition; at 40 µM; stronger effect = lower value. An outline of the steps:
as §1

The target in test [5] is Phenylethanolamine N-methyltransferase (Homo sapiens) (UniProt P11086). The following applies: purified enzyme, MTase-Glo SAH luminescence; measured here: PNMT inhibition; at 40 µM; stronger effect = lower value. An outline of the steps: as §1

Structures are written as SMILES. The list shows a part of the results. Further columns of the screen follow, without active or inactive calls.

The text below walks through data of PubChem BioAssay AID1745853 (National Center for Advancing Translational Sciences (NCATS), 2022).
% is set by controls: 0 for no effect and ±100 for the full control effect.

With `Cn1ccc(C(=O)NCc2nnc3n2C(C(=O)NCC2CC2)CC3)n1` (stereo not given), the activity change, negative = inhibition in test [1] is 3.43%; in test [2], 3.7%; in test [3], 1.41%; in test [4], 1.28%; in test [5] it was 5.13%.

Regarding `Cc1ccccc1[C@H]1C[C@@H](O)[C@@H](O)[C@@H]1NC(=O)c1c(-c2ccccc2)noc1C`, the activity change, negative = inhibition in test [1] is -0.128%; in test [2], -3.35%; in test [3], -3.07%; in test [4], -0.112%; in test [5] it was 2.51%.

With `CCN1C(=O)c2cc(C(=O)NC3CCN(Cc4ccccc4)CC3)nn2CC1(C)C(=O)NC1CCCC1` (stereo not given), the activity change, negative = inhibition in test [1] is 6.78%; in test [2] it was 0%; in test [3], -3.72%; in test [4], 8.64%; in test [5] it was 7.41%.

`COc1cc(/C=C/c2cc(O)cc(O[C@@H]3O[C@H](CO)[C@@H](O)[C@H](O)[C@H]3O)c2)ccc1O`: the activity change, negative = inhibition in test [1] is -0.643%; in test [2], -15.7%; in test [3], -7.56%; in test [4], -26.4%; in test [5], 0.687%.

For `Cn1nccc1C(=O)N1CCCC(c2nc(-c3ccccc3)no2)CCNC(=O)CC1` (stereo not given), the activity change, negative = inhibition in test [1] is -3.54%; in test [2], 1.01%; in test [3], -3.42%; in test [4], -3.41%; in test [5] it was 0.317%.

Regarding `CN1CCN(C(=O)CN[C@@H]2C[C@H]2c2ccc(OCc3ccccc3)cc2)CC1`, the activity change, negative = inhibition in test [1] is -0.157%; in test [2], 0.39%; in test [3] it was -0.037%; in test [4], -12.2%; in test [5], -4.83%.

Consider `Cc1cccc(CNC(=O)C2CCc3sc(C(=O)N4CCOCC4)cc3C2)c1` (stereo not given), for which the activity change, negative = inhibition in test [1] is -1.33%; in test [2] it was -0.593%; in test [3], 0.888%; in test [4], -3.7%; in test [5], 1.14%.

Consider `Cc1cccc(CNC(=O)C2(C)Cn3cnc(C(=O)NCc4ccccn4)c3C(=O)N2C2CC2)c1` (stereo not given), for which the activity change, negative = inhibition in test [1] is -2.92%; in test [2] it was 0%; in test [3], 2.26%; in test [4], -0.463%; in test [5], -2.02%.

On to `Cc1ccc(N2C(=O)c3cc4occc4n3CC2(C)C(=O)NC2CCCCC2C)cc1C` (stereo not given), for which the activity change, negative = inhibition in test [1] came to 2.52%; in test [2], 1.26%; in test [3] it was 7.73%; in test [4], 8.02%; in test [5] it was 2.73%.

On to `NC(=O)[C@@H]1CCCN1C(=O)c1ccc2oc(-c3cccc(F)c3)nc2c1`, for which the activity change, negative = inhibition in test [1] is -8.32%; in test [2], -8.79%; in test [3], -8.03%; in test [4], -9.16%; in test [5], -2.11%.

For the compound `C=CC[C@]12C[C@@H](OC)C(=O)C(OC)=C1O[C@@H](c1cc(OC)c3c(c1)OCO3)[C@@H]2C`, the activity change, negative = inhibition in test [1] is -1.1%; in test [2], 5.83%; in test [3], 5.34%; in test [4], -6.33%; in test [5], 2.79%.

As for `CC1CC(C)CN(S(=O)(=O)c2ccc3c(c2)oc(=O)n3CC(=O)NC2CCCCC2C)C1` (stereo not given), the activity change, negative = inhibition in test [1] was -9.84%; in test [2] it was 1.05%; in test [3] it was -1.76%; in test [4], -11%; in test [5], -12.6%.

`NCC(=O)N1CCC2(CC1)C(=O)NCN2C(=O)c1ccc(Cl)cc1`: the activity change, negative = inhibition in test [1] is 1.91%; in test [2], -1.88%; in test [3] it was -0.253%; in test [4], 0.009%; in test [5], -5.56%.

As to `O=C1CCN(C(=O)[C@@H]2CCCN2C(=O)Nc2ccccc2)CCCCCCN1`, the activity change, negative = inhibition in test [1] was -5.51%; in test [2], -3.48%; in test [3], -0.06%; in test [4], -5.67%; in test [5] it was 0.745%.

In the case of `Cc1cccc(CC(=O)N2CCCn3cc(-c4cccc(C#N)c4)nc32)c1`, the activity change, negative = inhibition was -8.29% in test [1]; -6.25% in test [2]; -23.4% in test [3]; -16.1% in test [4]; -7.36% in test [5].

Turning to `Cn1nccc1-c1cc2c(cn1)CN(Cc1ccncc1)CCN2`, the activity change, negative = inhibition is -10.5% in test [1]; -6.31% in test [2]; -61.6% in test [3]; -25.1% in test [4]; -13.8% in test [5].

`C[C@H]1CC[C@@]2(OC1)O[C@H]1CC3C4CC=C5C[C@H](O)C[C@@H](O[C@@H]6O[C@@H](C)[C@H](O)[C@@H](O)[C@H]6O[C@@H]6O[C@@H](C)[C@H](O)[C@@H](O)[C@H]6O)[C@]5(C)C4CC[C@]3(C)[C@H]1[C@@H]2C` (stereo not given in full): the activity change, negative = inhibition came out at 0% in test [1]; 19.1% in test [2]; 9.05% in test [3]; 4.21% in test [4]; 5.8% in test [5].

As for `Cc1cn(C[C@H](N)C(=O)O)c(=O)n(Cc2ccsc2C(=O)O)c1=O`, the activity change, negative = inhibition in test [1] is -0.388%; in test [2], 4.06%; in test [3], 9.77%; in test [4], -9.91%; in test [5] it was 5.5%.

In the case of `CCCc1noc(-c2cccn3c(CNC(=O)c4ccc(OCC)cc4)nnc23)n1`, the activity change, negative = inhibition was -7.05% in test [1]; -5.34% in test [2]; -4.46% in test [3]; -9.03% in test [4]; 3.18% in test [5].

With `Cc1ccc(CNC(=O)C2(C)Cn3nc(C(=O)NCc4ccccn4)cc3C(=O)N2C)cc1` (stereo not given), the activity change, negative = inhibition is 4.79% in test [1]; 3.24% in test [2]; -4.98% in test [3]; 4.36% in test [4]; 5.36% in test [5].

Regarding `CN(C)C(=O)c1nc2sccn2c1Br`, the activity change, negative = inhibition was 404% in test [1]; -7.47% in test [2]; -0.836% in test [3]; -14.2% in test [4]; -7.58% in test [5].

Regarding `CCc1ccccc1NC(=O)Cn1nc2n(C(C)C)c(=O)c3ccc(C(=O)NC(C)C)cc3n2c1=O`, the activity change, negative = inhibition was 1.75% in test [1]; 0% in test [2]; 4.55% in test [3]; -5.5% in test [4]; 3.03% in test [5].

`CN(Cc1nc(-c2ccccc2)cs1)C(=O)c1cccc(-n2cnnc2)c1`: the activity change, negative = inhibition in test [1] was -3.33%; in test [2], -2.87%; in test [3], -2.79%; in test [4] it was -10.6%; in test [5], 5.88%.

For `CCCNC(=O)c1ncn2c1C(=O)N(C1CC1)C(C)(C(=O)NCc1ccc(F)cc1)C2` (stereo not given), the activity change, negative = inhibition worked out at 4.5% in test [1]; 0% in test [2]; 12.3% in test [3]; 8.23% in test [4]; 7.85% in test [5].

In the case of `O=C(CN1CCOC1=O)N1CCn2nc(C(O)Cc3ccccc3)cc2C1` (stereo not given), the activity change, negative = inhibition in test [1] was -2%; in test [2], -0.683%; in test [3], 1.34%; in test [4], -0.03%; in test [5] it was 4.62%.

With `O=C(NC1CCCCC1)O[C@@H]1CO[C@H]2[C@@H]1OC[C@@H]2n1nnnc1SCc1ccco1`, the activity change, negative = inhibition in test [1] was -8.1%; in test [2], -4.7%; in test [3], -1.86%; in test [4] it was -0.837%; in test [5] it was -1.4%.

Consider `CN(CC1CCOC1)C(=O)NCc1ccc(F)cc1` (stereo not given), for which the activity change, negative = inhibition in test [1] was -4.2%; in test [2] it was -6.89%; in test [3], -0.71%; in test [4], -11.9%; in test [5], -7.43%.

Turning to `CNC(=O)CN1CCC(Oc2cc3c(Nc4cccc(Cl)c4F)ncnc3cc2OC)CC1`, the activity change, negative = inhibition in test [1] was -54.4%; in test [2], -24.6%; in test [3], -46.4%; in test [4], -32.7%; in test [5] it was -37.5%.

For `COc1ccc(NC(=O)Cn2nc3n(CC(C)C)c(=O)c4ccccc4n3c2=O)cc1OC`, the activity change, negative = inhibition in test [1] was -5%; in test [2], 5.84%; in test [3] it was 0.888%; in test [4], -4.92%; in test [5] it was -3.02%.
